From PubChem BioAssay AID1346428 (National Center for Advancing Translational Sciences (NCATS), 2018)
“And” between values parts separate entries of the source, which are not always exact repeats. Equal entries are not always repeated. Among all 48,000 compounds or so, about 1,200 (2.5%) were called active. Roughly 2% stayed inconclusive and do not appear here.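 The calls were made as follows: active = activation of at least 60% and not above a set upper limit (about 1 call in 100 departs from these limits); inconclusive = activation of 40% to 60%, or above that upper limit; inactive = activation under 40%.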 Some of the results follow.

target: Probable G-protein coupled receptor 32 (Homo sapiens) (UniProt O75388); test: qHTS for Agonists of Human Resolvin D1 Receptor DRV1; details: CHO-K1 GPR32 beta-arrestin PathHunter luminescence, 90 min; at 76.9 µM; active compounds read high; zero percent set by DMSO-only wells; also: 0% is about no effect
In short: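 Engineered CHO-K1 line co-expressing GPR32-ProLink and EA-beta-arrestin. Compound treatment lasted 90 min at 37 °C. Luminescence was recorded after 1 h with substrate at ambient temperature, relative to DMSO basal wells.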

Sequence of UniProt O75388 (O75388 whole entry, looked up): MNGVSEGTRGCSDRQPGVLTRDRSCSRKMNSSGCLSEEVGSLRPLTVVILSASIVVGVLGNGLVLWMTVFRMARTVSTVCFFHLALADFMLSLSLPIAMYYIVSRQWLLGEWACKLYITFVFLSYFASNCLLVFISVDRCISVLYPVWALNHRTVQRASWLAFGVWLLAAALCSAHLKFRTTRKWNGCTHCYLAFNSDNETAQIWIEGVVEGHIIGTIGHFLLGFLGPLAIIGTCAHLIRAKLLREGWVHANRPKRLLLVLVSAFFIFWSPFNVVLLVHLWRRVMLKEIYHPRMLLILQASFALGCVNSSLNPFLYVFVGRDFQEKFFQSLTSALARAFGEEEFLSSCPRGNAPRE

activation, inactive:
COc1ccccc1NC(=O)c1cn(-c2ccccc2)nc1-c1ccccc1 -8.27%, Cc1cccc(N2CCN(C(=O)c3noc4c3CCCCC4)CC2)c1C -15.9%, COc1cccc(C(=O)N(Cc2sccc2C)C2CCS(=O)(=O)C2)c1 (centres undefined) -13.7%, CC(C)(C)OC(=O)N1CCC(c2c(C(=O)NCc3ccc(F)cc3)cnn2-c2ccc(F)cc2)CC1 -6.11%, CCOC(=O)c1c(C)oc2nc(C)nc(N3CCN(c4ccc(C(C)=O)cc4)CC3)c12 -3.4%, Cc1ccc(-c2cn3c(n2)sc2cc(C(=O)NCCCN4CCCCC4)ccc23)cc1 15.8%, COc1ccc2cc3cc(C(=O)N4CCN(c5ccc(C(C)=O)cc5)CC4)sc3nc2c1Cl 3.77%, COc1ccc(OCC2c3cc(OC)c(OC)cc3CCN2C(=O)c2ccc(F)cc2)cc1 (centres undefined) -3.95%, CCN(CC)CCNC(=O)c1sc2nc3n(c(=O)c2c1C)CCCCC3 4.31%, COc1ccc(C(=O)Nc2cc(-c3cccc(C)c3)nn2-c2ccccc2)cc1 -3.59%, CCOC(=O)c1ccc(NC(=O)c2c(NCc3cccs3)sc3c2CCCCC3)cc1 -4.18%, O=S(=O)(NCc1nc2cccnc2n1Cc1ccc(F)cc1)c1ccc2c(c1)CCCC2 -12.1%, CCCC(=O)O[C@]1(C(=O)CC)CC[C@H]2[C@@H]3CCC4=CC(=O)CC[C@]4(C)[C@H]3[C@@H](O)C[C@@]21C -5.62%, O=S(=O)(NCCc1csc2nc(-c3ccc(F)cc3)nn12)c1ccc(Br)cc1 23.4%, Cc1cc(NC(=O)Cn2c(=O)nc(-c3ccccc3F)c3cc(Cl)ccc32)ccc1Br -5.98%, CC1=C(C(=O)Nc2ccccc2C)C(c2ccncc2)n2nc(SCc3ccccc3)nc2N1 (centres undefined) -15.3%, Cc1ccc(NC(=O)Cn2c(=O)n(-c3ccc(Cl)c(Cl)c3)c(=O)c3c(C)c(C)sc32)c(C)c1 -9.14%, Cc1cccc(Cn2c(CN3CCC(C(=O)NCc4cccnc4)CC3)cc3ccccc32)c1 -15.5%, COc1cn(CC(=O)Nc2ccc(F)cc2)c(CN2CCCCC2)cc1=O -4.28%, COc1cccc(CSc2nc3n(n2)C(c2cccs2)C(C(=O)Nc2ccccc2C)=C(C)N3)c1 (centres undefined) 12.4%, CCOC(=O)c1c(N)n(-c2ccc(Cl)c(Cl)c2)c2nc3ccccc3nc12 19%, CCN1CCN(c2cc(C)c3cc(NC(=O)c4cccc(C(F)(F)F)c4)ccc3n2)CC1 2.08%, CCOC(=O)c1ccc(NC(=O)CC2C(=O)N(c3cccc(OC)c3)C(=O)N2C2CCCCC2)cc1 (centres undefined) -10.8%, Cc1ccc(OCCn2cc(C(=O)C3CCCCC3)c3ccccc32)cc1 -20.2%, CSc1ncc(Cl)c(C(=O)Nc2ccc(S(=O)(=O)N3CCC(C)CC3)cc2)n1 -1.85%, COc1cccc(CNC(=O)C2CCN(c3nc4ccc(Cl)cc4[nH]3)CC2)c1 4.32%, CCCCc1cc(=O)oc2cc(C)c3c(C)coc3c12 -11.8%, Cc1ccc(Cn2c(C(=O)Nc3cccc(Cl)c3)cc3sccc32)cc1 -26.1%, COc1cc(C(=O)NC2CCCNC2)cc(OC)c1OC (centres undefined) -16.3%, Cn1nnnc1SCCNCc1ccccc1OCc1ccccc1F 38.4%, Cn1cnc(S(=O)(=O)N2CCCC(C(=O)Nc3ccc(F)cc3Cl)C2)c1 (centres undefined) -14.3%, O=C(NCCn1cc(SCc2ccc(F)cc2)c2ccccc21)c1c(F)cccc1F 9.17%, Cc1ccc(C2c3c(-c4ccccc4O)n[nH]c3C(=O)N2CCCO)cc1 (centres undefined) -15.7%, CCOC(=O)c1cccc(NC(=O)c2ccc3c(c2)nnn3C2CCCC2)c1 9.34%, COc1cccc(C(=O)Nc2ccc(Cl)c(-c3nc4ccccc4[nH]3)c2)c1 -5.21%, CSc1nc(C)cc(Nc2c(C)cc(C)cc2C)n1 -11.3%, COc1ccc2c(c1)CC(NC(=O)Nc1cc(Cl)ccc1OC)CO2 (centres undefined) -16.3%, COC(=O)c1ccc(NS(=O)(=O)c2ccc(-n3cccn3)cc2)cc1 -6.68%, CC(=O)c1ccc(N2CCN(S(=O)(=O)c3ccc4c(c3)CC(C)N4C(=O)C3CCC3)CC2)cc1 (centres undefined) -5.16%, Cc1ccc(S(=O)(=O)c2cn(C)c3cc(N4CCCCCC4)c(F)cc3c2=O)cc1 8.19%, OC[C@H]1O[C@@H](n2cnc3c(NC4CCCCC4)ncnc32)[C@H](O)[C@@H]1O 0.139%, CC(=O)c1ccc(NS(=O)(=O)c2cc(-c3cnc(C4CC4)o3)ccc2C)cc1 18.9%, Cc1ccccc1NC(=O)c1ccc2nc(Cc3ccccc3)oc2c1 -19.5%, Cn1c(SCc2ccc(F)cc2)nc2c([nH]c3ccccc32)c1=O 3.7%, COc1ccccc1C(=O)Nc1c(C(=O)N(CCN(C)C)Cc2ccco2)oc2ccccc12 8.82%, Cc1ccc(Cn2c(=O)n(-c3ccccc3)c(=O)c3ccc(C(=O)NCc4ccco4)cc32)cc1 -9.04%, CCOc1ccc(NC(=O)c2cc3c(-c4ccccc4F)nn(C)c3s2)cc1 3.11%, O=C(CCSCc1cnn(-c2ccccc2)c1-n1cccc1)NCc1ccccc1F -2.78%, O=C(c1cc(=O)c2cc(Cl)ccc2o1)N(Cc1ccccc1)C1CCS(=O)(=O)C1 (centres undefined) -14.6%, COc1cc(Cl)c(C)cc1NC(=O)c1cc2ccc3cccnc3c2[nH]1 -0.357%, CC(=O)OCc1cnc(C)c2oc(=O)c(C(=O)Nc3cccc(F)c3)cc12 -7.92%, Cc1ccc(-n2ncc3c(NCCCc4ccccc4)ncnc32)cc1 12.1%, Cc1nc(N2CCCC2)c2c(C(=O)Nc3cccc(Cl)c3C)c(C)oc2n1 -27.5%, COc1cc2[nH]c(=O)n(Cc3ccc(C(=O)NCc4ccccc4)cc3)c(=O)c2cc1OC -5.31%, COc1ccc(NC(=O)CSc2nc3nc(C)c(Cc4ccc(C)cc4)c(C)n3n2)cc1OC 20.4%, CCCNC(=O)C1CCC(Cn2c(=O)c3sccc3n(Cc3ccccc3C)c2=O)CC1 (centres undefined) 13.1%, COc1ccc(Cl)cc1-n1nnc(-c2nc(-c3ccc4c(c3)OCO4)no2)c1C -4.19%, COc1ccccc1NC(=O)C(=O)c1cc(C)n(-c2ccccc2F)c1C -28.3%, Cc1cccc(C)c1NC(=O)c1csc2c1CCCC2 -14.9%, Cc1ccc(NC(=O)Nc2nnc(SCC(=O)Nc3ccc(F)cc3F)s2)cc1 -3.93%, CCc1ccc(NC(=O)c2cc(S(=O)(=O)N3CCCCCC3)ccc2F)cc1 -18.6%, CCCCN1CC(c2nc3ccccc3n2CCCCOc2ccc(C)cc2C)CC1=O (centres undefined) 1.74%, Cc1ccc(-n2ncc3c(NCCCN4CCOCC4)ncnc32)cc1Cl 13.9%, O=C(NCCCc1nc2ccccc2n1Cc1cccc(Cl)c1)c1ccco1 -8.02%, COc1nc(-c2ccc(C)cc2)ccc1-c1noc(-c2ccccc2Br)n1 -6.74%, COc1cc(OC)c(NC(=O)CCCn2nc(C)c3sc4ccccc4c3c2=O)cc1Cl -18.1%, COC(=O)c1ccc(Cl)cc1NC(=O)N1CCCn2nc(C)cc21 -13.9%, C[C@]12CC[C@@H]3c4ccc(O)cc4CC[C@H]3[C@@H]1CCC2=O -3.88% and -1.78%, O=c1c2cccnc2n(Cc2ccccc2F)c(=O)n1Cc1ccccc1Cl -2.82%, Cc1ccc(C)c(N2CCN(C(=O)CN3CCSc4ccc(S(=O)(=O)N(C)C)cc43)CC2)c1 -5.07%, CC(=O)Nc1nonc1-c1nnc(SCC(=O)Nc2cc(C)cc(C)c2)n1C -6.05%, CCCCOC(=O)CSc1nnc(-c2ccccc2)o1 7.84%, O=C(c1ccc(C(F)(F)F)cc1)N1CCC(c2nc(-c3ccc(S(=O)(=O)N4CCCC4)cc3)no2)CC1 2.2%, COc1cccc(NC(=O)/C(C#N)=C\c2cn(Cc3ccc(C)cc3)c3ccccc23)c1 -9.4%, Cc1oc2ncn(CC(C)C)c(=O)c2c1C(=O)N1CCN(c2ccc(F)cc2)CC1 -10.8%, COc1ccccc1CNc1ccc(-c2nc(C)no2)cc1[N+](=O)[O-] -4.74%, COc1ccc(-c2oc3ncn4nc(-c5ccccc5Br)nc4c3c2-c2ccc(OC)cc2)cc1 21.5%, Cc1ccc2[nH]c3c(=O)n(CC(=O)N(C)c4cc(Cl)ccc4C)ncc3c2c1 -10.3%, O=C(c1ccc2c(c1)N(Cc1cccc(Cl)c1)C(=O)c1ccccc1S2(=O)=O)N1CCCCC1 -36.4%, Cc1ccc(C)c(NC(=O)Cn2cc(C(=O)C3CCCCC3)c3ccccc32)c1 5.22%, COc1cccc2c1Oc1ncccc1N(C(=O)CCC(=O)NCc1ccc(N(C)C)cc1)C2 -4.35%, COc1cccc(NC(=O)c2oc3ccccc3c2NC(=O)c2ccc(C(F)(F)F)cc2)c1 -1.71%, O=C(CN1CCCN(Cc2ccc(Cl)cc2)S1(=O)=O)Nc1ccccc1F -7.67%

activation, active:
C=Cc1ccc(Cn2c(C(=O)O)c(CNCc3cccs3)c3ccc(C)cc32)cc1 96.3%
